Results as given in the supplement of paper PMC10126150.
Values marked as one replicate rest on one cluster of the flow cell; about a third of the high ones do not repeat.
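Note: ATP exposure 15 min at 22 °C before imaging.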

These sequences were tested on ATP (assay: switch fluorescence ratio, 500 uM ATP over buffer (Cy3 cluster intensity, sum of 5 cycles each) (fold (ratio)); higher = stronger signal-on switching upon ATP binding; sequences stand for … in TCGTCGGCAGCGTCAGATGTGTATAAGAGACAGTTTTTTTTTTTTTTTTTTTTTTTTT…TC). Conditions: aptamer strand: ATP DNA aptamer (quencher-CACCTGGGGGAGTATTGCGGAGGAAGG + anchor), 100 nM annealed; ATP concentration: 500 uM; one replicate.
In short: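 Cy3-labelled switching-strand clusters on a modified Illumina MiSeq flow-cell were annealed to 100 nM quencher-labelled ATP aptamer, imaged in selection buffer, then imaged after 15 min with 500 uM ATP at 22 °C. Five buffer/ATP cycles ran, with NaOH stripping and re-annealing between them. The fluorescence ratio is summed target-cycle over summed buffer-cycle Cy3 intensity per cluster, averaged per switch-domain sequence. Clusters outside 100-1000 RFU were excluded.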
TTGTCCGTCA was tested, and the switch fluorescence ratio was 1.01.
In the case of TTGTCCTCGG, the switch fluorescence ratio is reported as 0.968.
TTGTCGAAGA was tested, and the switch fluorescence ratio was 0.991.
TTGTCTAAGT showed a switch fluorescence ratio of 1.02.
Work on TTGTCTGATG yielded a switch fluorescence ratio of 0.977.
For TTGTCTGGCG, the switch fluorescence ratio was 0.993.
TTGTCTTAGG was tested, and the switch fluorescence ratio was 1.04.
For TTGTGAAAGT, the switch fluorescence ratio was 0.977.
With TTGTGACTTG the switch fluorescence ratio was 1.06.
Sequence TTGTGAGAG has a switch fluorescence ratio of 1.03.
TTGTGCTTCT showed a switch fluorescence ratio of 0.988.
With TTGTGGCC the switch fluorescence ratio was 0.973.
TTGTGGCGCT gave a switch fluorescence ratio of 1.
TTGTGGCTTG was tested, and the switch fluorescence ratio was 0.986.
TTGTGGTAG showed a switch fluorescence ratio of 1.01.
TTGTGGTCAG showed a switch fluorescence ratio of 0.961.
For TTGTGTCATC, the switch fluorescence ratio was 0.995.
With TTGTGTCCAT the switch fluorescence ratio was 0.989.
Sequence TTGTGTGC has a switch fluorescence ratio of 0.975.
With TTGTTACAAA the switch fluorescence ratio was 0.941.
With TTGTTACCGT the switch fluorescence ratio was 0.988.
TTGTTACTAG was tested, and the switch fluorescence ratio was 0.999.
In the case of TTGTTACTGC, the switch fluorescence ratio is reported as 0.993.
TTGTTAGCGT was tested, and the switch fluorescence ratio was 0.979.
Sequence TTGTTCACCA has a switch fluorescence ratio of 1.01.
With TTGTTCCGTC the switch fluorescence ratio was 1.05.
With TTGTTCCTGA the switch fluorescence ratio was 1.
For TTGTTGCGCA, the switch fluorescence ratio was 0.985.
Sequence TTGTTGCGGT has a switch fluorescence ratio of 0.983.
Work on TTGTTGGAAA yielded a switch fluorescence ratio of 0.992.
TTGTTGGTC was tested, and the switch fluorescence ratio was 0.929.
In the case of TTGTTGTACG, the switch fluorescence ratio is reported as 1.06.
Work on TTGTTTAG yielded a switch fluorescence ratio of 1.07.
In the case of TTTAAAGAG, the switch fluorescence ratio is reported as 0.96.
Sequence TTTAACGGCC has a switch fluorescence ratio of 0.984.
Work on TTTAACTTAC yielded a switch fluorescence ratio of 1.61.
For TTTAAGACTT, the switch fluorescence ratio was 0.955.
Work on TTTAAGCCGC yielded a switch fluorescence ratio of 1.05.
Work on TTTAAGCGGG yielded a switch fluorescence ratio of 1.04.
TTTAAGGCGA was tested, and the switch fluorescence ratio was 1.01.
TTTAATCGGT showed a switch fluorescence ratio of 0.963.
In the case of TTTAATCTCG, the switch fluorescence ratio is reported as 1.02.
TTTAATGCCC was tested, and the switch fluorescence ratio was 1.31.
In the case of TTTAATGGCG, the switch fluorescence ratio is reported as 1.8.
TTTACAAAAT showed a switch fluorescence ratio of 0.975.
In the case of TTTACAATAG, the switch fluorescence ratio is reported as 1.09.
In the case of TTTACACAGC, the switch fluorescence ratio is reported as 1.07.
For TTTACACTTT, the switch fluorescence ratio was 0.968.
TTTACAGACA gave a switch fluorescence ratio of 1.13.
Work on TTTACAGCTG yielded a switch fluorescence ratio of 1.08.
Sequence TTTACAGGCA has a switch fluorescence ratio of 1.01.
TTTACGCCGA gave a switch fluorescence ratio of 0.965.
Sequence TTTACGCCTG has a switch fluorescence ratio of 0.988.
TTTACGTGCT was tested, and the switch fluorescence ratio was 1.08.
With TTTACTAGCT the switch fluorescence ratio was 1.05.
TTTACTCTTA was tested, and the switch fluorescence ratio was 1.02.
TTTAGACGAT showed a switch fluorescence ratio of 1.02.
For TTTAGCCCGG, the switch fluorescence ratio was 0.985.
TTTAGCTAGC gave a switch fluorescence ratio of 0.981.
TTTAGCTTCT gave a switch fluorescence ratio of 1.01.
TTTAGGACAC showed a switch fluorescence ratio of 1.01.
For TTTAGGGCAG, the switch fluorescence ratio was 0.953.
TTTAGGTCTC was tested, and the switch fluorescence ratio was 0.993.
For TTTAGTTCCA, the switch fluorescence ratio was 0.965.
For TTTATACGCC, the switch fluorescence ratio was 1.12.
TTTATACGTC was tested, and the switch fluorescence ratio was 0.988.
In the case of TTTATATCTA, the switch fluorescence ratio is reported as 0.994.
For TTTATATGAT, the switch fluorescence ratio was 0.996.
For TTTATATGCC, the switch fluorescence ratio was 0.993.
TTTATCATTA gave a switch fluorescence ratio of 0.956.
TTTATCCCTG was tested, and the switch fluorescence ratio was 1.
In the case of TTTATCCGAA, the switch fluorescence ratio is reported as 1.04.
With TTTATCTAAC the switch fluorescence ratio was 1.02.
Work on TTTATGAATA yielded a switch fluorescence ratio of 0.99.
For TTTATGACTC, the switch fluorescence ratio was 0.986.
For TTTATGACTG, the switch fluorescence ratio was 0.948.
For TTTATGCATA, the switch fluorescence ratio was 0.951.
With TTTATGCGAC the switch fluorescence ratio was 1.01.
With TTTATGCGGT the switch fluorescence ratio was 0.981.
With TTTATGCT the switch fluorescence ratio was 0.97.
TTTATGCTAG gave a switch fluorescence ratio of 0.99.
TTTATGTCAG showed a switch fluorescence ratio of 0.987.
Work on TTTATGTTAA yielded a switch fluorescence ratio of 1.02.
In the case of TTTATGTTAC, the switch fluorescence ratio is reported as 1.08.
TTTATTACTG showed a switch fluorescence ratio of 1.04.
TTTATTATTC gave a switch fluorescence ratio of 1.01.
For TTTATTCAA, the switch fluorescence ratio was 1.03.
Work on TTTCAAAGCT yielded a switch fluorescence ratio of 1.14.
Work on TTTCAAGCGC yielded a switch fluorescence ratio of 1.01.
Work on TTTCACCGTT yielded a switch fluorescence ratio of 0.957.
TTTCACCTTA gave a switch fluorescence ratio of 1.07.
TTTCACTCTG gave a switch fluorescence ratio of 1.05.
In the case of TTTCAGTAAC, the switch fluorescence ratio is reported as 0.988.
Work on TTTCAGTCGA yielded a switch fluorescence ratio of 0.972.
Sequence TTTCATTCCG has a switch fluorescence ratio of 1.1.
Work on TTTCCAAGTT yielded a switch fluorescence ratio of 1.04.
In the case of TTTCCACAAC, the switch fluorescence ratio is reported as 1.01.
Sequence TTTCCACGAG has a switch fluorescence ratio of 1.03.
TTTCCAGGGC gave a switch fluorescence ratio of 1.34.
In the case of TTTCCCGTGC, the switch fluorescence ratio is reported as 1.11.
With TTTCCGTTGT the switch fluorescence ratio was 1.01.
Work on TTTCCTATC yielded a switch fluorescence ratio of 0.997.
For TTTCCTCTAA, the switch fluorescence ratio was 1.04.
TTTCCTCTAT gave a switch fluorescence ratio of 1.6.
TTTCCTTCAG gave a switch fluorescence ratio of 1.05.
TTTCCTTTCG was tested, and the switch fluorescence ratio was 1.08.
In the case of TTTCGAAACC, the switch fluorescence ratio is reported as 1.06.
TTTCGACCGT showed a switch fluorescence ratio of 1.01.
With TTTCGATTAG the switch fluorescence ratio was 1.06.
TTTCGATTGG showed a switch fluorescence ratio of 0.989.
In the case of TTTCGCATCA, the switch fluorescence ratio is reported as 5.5.
TTTCGCGACT was tested, and the switch fluorescence ratio was 1.74.
For TTTCGCGCTT, the switch fluorescence ratio was 1.95.
In the case of TTTCGGATTA, the switch fluorescence ratio is reported as 0.981.
TTTCGTATGC gave a switch fluorescence ratio of 1.06.
TTTCGTTAGA gave a switch fluorescence ratio of 1.02.
With TTTCTCGGTC the switch fluorescence ratio was 0.965.
TTTCTGAATA was tested, and the switch fluorescence ratio was 1.02.
TTTCTGCAGA gave a switch fluorescence ratio of 1.01.
With TTTCTGGCGT the switch fluorescence ratio was 1.02.
TTTCTGTTTA showed a switch fluorescence ratio of 0.976.
TTTCTTCCCA showed a switch fluorescence ratio of 1.07.
TTTGAAAGA gave a switch fluorescence ratio of 1.01.
For TTTGAAGCCC, the switch fluorescence ratio was 1.07.
For TTTGAATCCG, the switch fluorescence ratio was 1.
TTTGAATTA gave a switch fluorescence ratio of 0.995.
For TTTGACTCTT, the switch fluorescence ratio was 0.998.
TTTGAGTTGC gave a switch fluorescence ratio of 1.02.
With TTTGATTGGC the switch fluorescence ratio was 1.01.
TTTGCACCTA showed a switch fluorescence ratio of 1.05.
Work on TTTGCAGGAG yielded a switch fluorescence ratio of 1.2.
TTTGCATAAG was tested, and the switch fluorescence ratio was 0.995.
Work on TTTGCCAGCG yielded a switch fluorescence ratio of 1.03.
With TTTGCCCGAC the switch fluorescence ratio was 1.22.
TTTGCCTGCA gave a switch fluorescence ratio of 1.07.
TTTGCTAACA was tested, and the switch fluorescence ratio was 1.05.
For TTTGCTCACT, the switch fluorescence ratio was 1.03.
In the case of TTTGCTCTCT, the switch fluorescence ratio is reported as 1.21.
Sequence TTTGCTCTGT has a switch fluorescence ratio of 0.998.
TTTGGAGCGG showed a switch fluorescence ratio of 0.988.
TTTGGCCGAA was tested, and the switch fluorescence ratio was 1.05.
In the case of TTTGGGTCTA, the switch fluorescence ratio is reported as 0.95.
For TTTGGTAGTC, the switch fluorescence ratio was 1.01.
TTTGGTGATG gave a switch fluorescence ratio of 1.01.
Work on TTTGGTGGTG yielded a switch fluorescence ratio of 1.06.
TTTGTAAAG gave a switch fluorescence ratio of 1.01.
TTTGTAATTA gave a switch fluorescence ratio of 0.994.
Sequence TTTGTATCCC has a switch fluorescence ratio of 1.16.
In the case of TTTGTCAATT, the switch fluorescence ratio is reported as 0.956.
For TTTGTGGCAA, the switch fluorescence ratio was 3.45.
Sequence TTTGTGGCCC has a switch fluorescence ratio of 1.09.
In the case of TTTGTTTTCC, the switch fluorescence ratio is reported as 1.01.
For TTTTAACGCA, the switch fluorescence ratio was 1.11.
TTTTAATTA was tested, and the switch fluorescence ratio was 1.03.
In the case of TTTTACAAAT, the switch fluorescence ratio is reported as 1.79.
TTTTACCCGA gave a switch fluorescence ratio of 1.01.
TTTTACGAAT was tested, and the switch fluorescence ratio was 1.04.
For TTTTACGCCA, the switch fluorescence ratio was 1.96.
With TTTTAGACGC the switch fluorescence ratio was 0.998.
For TTTTAGCCTA, the switch fluorescence ratio was 1.12.
TTTTAGCTTA showed a switch fluorescence ratio of 1.03.
Work on TTTTAGTCGA yielded a switch fluorescence ratio of 0.992.
TTTTAGTGG gave a switch fluorescence ratio of 1.01.
TTTTATCTGG was tested, and the switch fluorescence ratio was 0.999.
With TTTTATGGTA the switch fluorescence ratio was 0.982.
TTTTATTTAA showed a switch fluorescence ratio of 0.988.
In the case of TTTTCATATG, the switch fluorescence ratio is reported as 1.02.
TTTTCATGT showed a switch fluorescence ratio of 1.02.
TTTTCCCCA showed a switch fluorescence ratio of 1.3.
TTTTCCGGCA was tested, and the switch fluorescence ratio was 1.36.
Work on TTTTCCTTC yielded a switch fluorescence ratio of 1.01.
TTTTCGACAG showed a switch fluorescence ratio of 1.
TTTTCGCGTT gave a switch fluorescence ratio of 0.973.
In the case of TTTTCGCTCG, the switch fluorescence ratio is reported as 1.04.
TTTTCGGGTC showed a switch fluorescence ratio of 0.973.
With TTTTCGTAGA the switch fluorescence ratio was 1.04.
In the case of TTTTCTGGTC, the switch fluorescence ratio is reported as 1.07.
In the case of TTTTCTTAAG, the switch fluorescence ratio is reported as 1.02.
TTTTCTTACA was tested, and the switch fluorescence ratio was 1.02.
TTTTGAACTC was tested, and the switch fluorescence ratio was 0.971.
TTTTGAATTC was tested, and the switch fluorescence ratio was 0.973.
For TTTTGACGCA, the switch fluorescence ratio was 1.63.
In the case of TTTTGATAAA, the switch fluorescence ratio is reported as 0.971.
Work on TTTTGCAGC yielded a switch fluorescence ratio of 1.09.
For TTTTGCATCG, the switch fluorescence ratio was 0.995.
TTTTGCATT showed a switch fluorescence ratio of 1.08.
With TTTTGCCTGG the switch fluorescence ratio was 1.27.
For TTTTGGATAC, the switch fluorescence ratio was 1.08.
Work on TTTTGTA yielded a switch fluorescence ratio of 0.953.
TTTTGTAGAG gave a switch fluorescence ratio of 0.984.
For TTTTGTCCCA, the switch fluorescence ratio was 0.985.
TTTTGTGCAC showed a switch fluorescence ratio of 0.977.
With TTTTGTGTAA the switch fluorescence ratio was 0.95.
Sequence TTTTGTTCCG has a switch fluorescence ratio of 1.02.
Work on TTTTTAGAGC yielded a switch fluorescence ratio of 0.991.
TTTTTATA was tested, and the switch fluorescence ratio was 1.01.
In the case of TTTTTCAACG, the switch fluorescence ratio is reported as 1.1.
TTTTTCCTGC showed a switch fluorescence ratio of 0.989.
For TTTTTCCTGG, the switch fluorescence ratio was 0.967.
For TTTTTCTACT, the switch fluorescence ratio was 1.01.
TTTTTGCCCC was tested, and the switch fluorescence ratio was 0.988.
